Source: PubChem BioAssay AID1030 (National Center for Advancing Translational Sciences (NCATS), 2008)
The whole screen tested about 220,000 compounds, of which about 16,000 (7.3%) were called active. This list was built around the results that the source calls inconclusive (neither active nor inactive); the mix of calls is not that of the screen. Calls come from the whole dose curve; as a rule, active = well fitted inhibition curve with a large enough effect (not every such curve was filed as active); inconclusive = small, poorly fitted or top-dose-only effect, or another doubt; inactive = no such curve, though single readings can be large or run the other way. Where the call is inconclusive, the potency comes from a doubtful curve fit.

molecular target: Aldehyde dehydrogenase 1A1 (Homo sapiens) (UniProt P00352); assay: qHTS Assay for Inhibitors of Aldehyde Dehydrogenase 1 (ALDH1A1); details: Purified ALDH1A1, NADH fluorescence, propionaldehyde substrate; series mostly up to 75.3 µM
Sequence of UniProt P00352 (P00352 whole entry, looked up): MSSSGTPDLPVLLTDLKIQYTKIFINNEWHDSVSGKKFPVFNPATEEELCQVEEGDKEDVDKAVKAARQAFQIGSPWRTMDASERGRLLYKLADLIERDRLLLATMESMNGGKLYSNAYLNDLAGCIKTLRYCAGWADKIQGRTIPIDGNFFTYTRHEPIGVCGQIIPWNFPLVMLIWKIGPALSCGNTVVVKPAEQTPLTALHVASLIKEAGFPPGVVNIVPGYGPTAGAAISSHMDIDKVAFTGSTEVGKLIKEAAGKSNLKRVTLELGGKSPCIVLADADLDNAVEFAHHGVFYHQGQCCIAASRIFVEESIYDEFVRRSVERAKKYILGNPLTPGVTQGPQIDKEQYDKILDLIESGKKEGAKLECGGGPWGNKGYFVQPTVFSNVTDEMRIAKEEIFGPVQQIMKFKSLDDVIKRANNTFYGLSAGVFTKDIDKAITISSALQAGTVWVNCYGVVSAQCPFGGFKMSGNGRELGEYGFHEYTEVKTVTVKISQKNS
Potency is the fitted concentration of half-maximal effect; tags give direction and shape of the fitted curve.

Potency, active:
CC(/C=C/c1ccco1)=N/NC(=O)Cc1cccs1 2.82 µM
O=C(/C=C/c1ccc(-c2ccccc2[N+](=O)[O-])o1)c1ccc(Br)cc1 7.08 µM
CC(/C=N/NC(=O)CSc1ccccn1)=C\c1ccc(C(C)C)cc1 25.1 µM
Cc1sc2c(c1C)CN(Cc1ccncc1)CN2C(=O)c1ccco1 25.1 µM
O=C(O)c1cccc(Cn2c(Cl)c(/C=N/NC(=O)c3cc4ccccc4cc3O)sc2=O)c1 10 µM
CC(C)(C)NC(=O)CN(Cc1cccs1)C(=O)CN1C(=O)C(=O)c2ccccc21 0.0282 µM

Potency, inactive:
COc1ccccc1C1CC(=O)Oc2c(C(C)C)ccc(C)c21 (centres undefined)
CCOC(=O)c1[nH]ncc1CN1CCCC(C(=O)c2ccc(C(C)(C)C)cc2)C1 (centres undefined)
CN1C2=NCCN2C(=O)c2ccccc21
CCNC(=O)C(=O)NCc1ccncc1
COC(=O)/C(C#N)=C1/C=Cc2ccccc2N1
Oc1ccc(/C=N/Nc2cc(N3CCOCC3)nc(N3CCOCC3)n2)cc1O
Cc1ccc(NC(=S)N2CCCN(Cc3ccc(F)cc3)C2)c(C)c1
O=C(CCCNC(=O)/C(=C/c1ccc(F)cc1)NC(=O)c1ccccc1)OCc1ccccc1
CC(C)NC(=O)CSc1nc(N)c(NC(=O)c2ccccc2F)c(=O)[nH]1
COC(=O)[C@@]1(Cc2ccc(OC)cc2)[C@H]2c3cc(C(=O)N4CCCC4)n(CCO)c3C[C@H]2CN1C(=O)c1ccccc1
CC1(C)CC(NC(=S)NCc2ccc3c(c2)OCO3)CC(C)(C)N1
COCCn1c(C)cc(C(=O)Cn2nc(C(=O)O)c3ccccc3c2=O)c1C
c1cnc(N2CCN(c3cnccn3)CC2)nc1
N=c1n(CC(=O)c2ccc([N+](=O)[O-])cc2)c2ccccc2n1Cc1ccc(Cl)cc1
COc1ccc(N2CC(C(=O)NC3=NCCS3)CC2=O)cc1 (centres undefined)

Potency, inconclusive:
COc1ccc(-c2nn3c(COc4ccccc4)nnc3s2)cc1OC 12.6 µM [inhibitor, partial curve]
CCC(C(=O)O)n1nnc(-c2ccc(-c3ccc(OC)cc3)cc2)n1 (centres undefined) 39.8 µM [inhibitor, single point]
COc1nccnc1NS(=O)(=O)c1ccc(NC(=S)NC(=O)c2ccccc2F)cc1 39.8 µM [inhibitor, single point]
CC(=O)OC/C=C(\C)CCC=C(C)C 22.4 µM [inhibitor, single point]
COc1ccc(S(=O)(=O)n2ccnc2)c2cccnc12 37.7 µM [inhibitor, single point]
COc1ccccc1NS(=O)(=O)c1ccc(S(=O)(=O)N2CCOCC2)cc1 44.7 µM [inhibitor, single point]
CC(C)c1cc(N2CCN(C(=O)c3ccco3)CC2)n2c(nc3ccccc32)c1C#N 25.1 µM [inhibitor, partial curve]
CCO/C=C1/C(=O)N(C)C(=O)c2cc(OC)ccc21 39.8 µM [inhibitor, single point]
CCOC(=O)c1c(C)[nH]c(N=Nc2ccc(C)cc2C)c1C 39.8 µM [inhibitor, single point]
CCOC(=O)N1CCN(C(=O)C2CCN(S(=O)(=O)N(CC)CC)CC2)CC1 15.8 µM [inhibitor, partial curve]
Clc1ccccc1OCc1nc(-c2ccc(Br)o2)no1 35.5 µM [inhibitor, single point]
COc1ccc(CCC(=O)OCC(=O)Nc2ccc(C)c(S(=O)(=O)N(C)C)c2)cc1 39.8 µM [inhibitor, single point]
N#Cc1ccc(NC(=O)c2cc(-c3cccs3)on2)cc1 39.8 µM [inhibitor, single point]
O=C(Cc1cccs1)N1CCCC(c2nc(-c3ccc(S(=O)(=O)N4CCCC4)cc3)no2)C1 (centres undefined) 25.1 µM [inhibitor, single point]
COc1ccc(N2CCN(c3oc(-c4ccccc4OC)nc3C#N)CC2)cc1 28.2 µM [inhibitor, single point]
O=C(CN(CCc1ccccc1)S(=O)(=O)c1ccc(Cl)cc1)N/N=C/c1ccc2c(c1)OCO2 39.8 µM [inhibitor, single point]
CS(=O)(=O)N(CCc1ccccc1)CC(=O)NCc1ccc2c(c1)OCO2 20 µM [inhibitor, partial curve]
O=C(C1CCCN(S(=O)(=O)c2cccnc2)C1)N1CCN(c2ccccn2)CC1 (centres undefined) 39.8 µM [inhibitor, single point]
COc1ccc(/C=C(\C#N)C(=O)OCC(=O)NCc2ccc(Cl)cc2)cc1 22.4 µM [inhibitor, single point]
O=c1c(/C=C(\O)c2ccccc2)nc2ccccc2n1-c1ccccc1 10 µM [inhibitor, partial curve]
CCn1c(O)c(C=C2N=c3ccccc3=N2)sc1=S 0.158 µM [inhibitor, full curve, poor fit]
Nc1cc(-c2nc3ncccc3o2)ccc1Cl 35.5 µM [inhibitor, single point]
C/C(=N\NC(=O)Cc1cccn1C)c1cccc2ccccc12 39.8 µM [inhibitor, single point]
CCN1CCN(CCOCCOc2ccccc2-c2ccccc2)CC1 39.8 µM [inhibitor, single point]
CC(C)C(=O)Nc1ccc2oc(=O)ccc2c1 39.8 µM [inhibitor, single point]
O=C1CC(c2ccc3c(c2)OCO3)c2cc(O)ccc2O1 (centres undefined) 35.5 µM [inhibitor, single point]
COCc1c(C(=O)OCC(=O)N2c3ccccc3NC(=O)C2(C)C)oc2ccccc12 14.1 µM [inhibitor, single point]
Cc1occc1C(=O)N1CCN(c2ccc(Cl)c(Cl)c2)CC1 25.1 µM [inhibitor, single point]
Cc1ccccc1NC(=O)COC(=O)CN1C(=O)NC(C)(C)C1=O 35.5 µM [inhibitor, single point]
CCOc1cc(/C=N/NC(=O)CSc2cccc3cccnc23)ccc1O 39.8 µM [inhibitor, single point]
CC(C)c1ccc(C2C3=C(COC3=O)Nc3cc4c(cc32)OCO4)cc1 (centres undefined) 28.2 µM [inhibitor, partial curve]
COc1cccc(C(=O)N2CCC(N3CC(C)OC(C)C3)CC2)c1 (centres undefined) 35.5 µM [inhibitor, single point]
C=CC[n+]1c(-c2ccc(OC)c(OC)c2)csc1NNC(=O)Nc1ccccc1 20 µM [inhibitor, partial curve]
COC(=O)c1c(C)[nH]c(C)c1-c1cccc([N+](=O)[O-])c1 17.8 µM [inhibitor, partial curve]
COc1ncc2nc(-c3cccs3)c(=O)n(CCc3ccccc3)c2n1 28.2 µM [inhibitor, partial curve]
O=C(O)c1ccc(N2C(=O)CC(N3C(=O)/C(=C/c4ccc(Cl)cc4)SC3=S)C2=O)cc1 (centres undefined) 22.4 µM [inhibitor, partial curve]
CCc1nc2c(n1O)CCc1nonc1-2 44.7 µM [inhibitor, single point]
O=C(N/N=C1/C(=O)c2cccc3cccc1c23)c1ccc(Cl)cc1 11.2 µM [inhibitor, partial curve]
Nc1nonc1-c1noc(CCCCCN2C(=O)c3ccccc3C2=O)n1 2.82 µM [inhibitor, full curve]
CCOCCCNC(=O)/C(C#N)=C/c1ccc(C(=O)OC)cc1 39.8 µM [inhibitor, single point]
COC(=O)c1ccc2c(=O)n(CCCCCC(=O)NCc3ccc4c(c3)OCO4)c(=O)[nH]c2c1 31.6 µM [inhibitor, partial curve]
CN(c1ccccc1)S(=O)(=O)c1cccc(C(=O)Nc2nccs2)c1 28.2 µM [inhibitor, partial curve]
Cc1cc2n(n1)C(c1ccc(N(C)C)cc1)Nc1ccccc1-2 (centres undefined) 28.2 µM [inhibitor, partial curve]
O=C(COc1ccccc1)Nc1nc(-c2ccc(S(=O)(=O)N3CCOCC3)cc2)cs1 39.8 µM [inhibitor, single point]
COc1ccccc1N1CCN(CC(=O)Nc2ccc(Cl)c(C(F)(F)F)c2)CC1 25.1 µM [inhibitor, single point]
CCN1CCN(c2cc(C)c3cc(NC(=S)N4CCC5(CC4)OCCO5)ccc3n2)CC1 39.8 µM [inhibitor, single point]
NS(=O)(=O)c1ccc(NC(=O)c2ccc(S(=O)(=O)N3CCc4ccccc43)cc2)cc1 39.8 µM [inhibitor, partial curve, poor fit]
O=C1C2C3C=CC(C3)C2C(=O)N1CCN1CCN(S(=O)(=O)/C=C/c2ccccc2)CC1 (centres undefined) 25.1 µM [inhibitor, single point]
